B1: LINE1-full (parent)
chain: UACGUAGGUGGUUUUCCCCUGAUAGUGCUAAGGGGGCCUGGAAGUUUGGACUGGGCAGAGCUCAACACAGCGUGGCAAAGUGGCUGUGGCUAGACUGCCUCUCUGGAUUCCUCGUCACUCAGCAGGGCAUCUCUGAGAGAAAUGCC

The source gives no read counts; variants with many changes may rest on few reads.

This series covers variants of B1. Briefly: self-cleavage, relative activity (ratio to wild type); higher = more cleavage; in vitro, sequencing; the parent is a self-cleaving ribozyme.
In the case of U26C C56G U87A U115A A129G, the self-cleavage came to 0.03. The figure for U26C C98G A136U A141U is 0.18; for U26C U46C U81A it is 2.76. The figure for U29C U46C U102C is 0.72; for U29C A50G U102C A117U it is 1.89; for U26A U112C U130C A142G it is 0.62. The figure for A30G A59G U100C U134C is 0; for U26C A31G A59G U81A A94U U104C A142C it is 0. Regarding U26C U47C U100C U130A, the self-cleavage came to 0. The figure for U29C A79G U85C is 0. The figure for U26C G35U A43U U115A A138G is 1.27; for U26C U73A A94G U104A U130C it is 0.54.

Take A30G A64U U104C: the self-cleavage amounted to 0.45.

For G27A U46C A57U U91A, the self-cleavage came to 0.08.

Regarding U29C A30G A117G G125U, the self-cleavage came to 0.81. For U29G C116U A138G the value was 1.32.

Consider C28U C101A A129G, for which the self-cleavage worked out at 1.3. For G27A U109C A141G the value was 1.28. For U26A U100A A136G the value was 0.72. Regarding G27U U87A A94G, the self-cleavage is 0.03. The figure for U29C G35A A107G is 1.15; for U26C U45C A64U it is 1.05; for U29C U45C A57G A124U A136G it is 1.53. For U29C A30G U130C the value was 0.63. For U29A U102C A138G, the self-cleavage stood at 2.3.

Consider U26G U112A A117G, for which the self-cleavage came to 1.45. The figure for U26C A67G U73A is 0.53; for A30G A43G U132C it is 0.4; for U29C G35A A42G C56U U102C C131U it is 0.05. For U29A U91C U112C U115C, the self-cleavage was 0. The figure for U26C G41U U112C is 1.56. For U26C U47A U134A the value was 1.41.

Turning to U26A U96C C98A U108C, the self-cleavage came to 0.21.

With U26C A65G A67G G83A A117U A141G, the self-cleavage amounted to 0.06.

As for U26C G40C A50G U109A U115G, the self-cleavage amounted to 1.84. The figure for U26G G44A U100C U119C is 1.05; for U29C U108C G139U it is 1.12; for U26C A43C A67U A77U it is 0.2. Take U26C G86A U109C: the self-cleavage was 0.

U29A G32A G44A U100C G114A A141G: the self-cleavage was found to be 1.79. On to G27U G97A A138G C145A, for which the self-cleavage came to 0.09. The figure for U29A A30U A124G is 0.48; for U29C A43G U45C U119C A129U it is 1.31. Consider U29C A117U U143C, for which the self-cleavage turned out to be 1.03. For the variant U26G C37A A140G, the self-cleavage is 0.29. For U29C U39C G74A A129G the value was 1.29. The figure for U26C U46A U52A A67G A78G U130C is 0; for U29C G36A G55C it is 0.16.

With A30C A65U A94G, the self-cleavage came out at 0.27. In the case of U26C U47C C84U, the self-cleavage amounted to 0.2. For U29C A42G U96C C123U G127A A140U the value was 0.11; for C28U A64U A65U U73C, 0.04. The figure for U26A U87A U104C U115C is 0; for C28U A50G U119C U134A it is 0.51.

As to U26C U39G U130A, the self-cleavage was 2.18. Regarding U29C A50U U85C, the self-cleavage turned out to be 0.49. For U26C U108G A138G the value was 1.46. The figure for G27A U39C U52A C123U A129G C131U U134G is 1.1; for C28A C84U U100C it is 0.44.

For A30G A64U A78U, the self-cleavage stood at 0.32. In the case of U26C A67G G144U, the self-cleavage stood at 0.33.

U26G U100C A138G: the self-cleavage came to 2.7.

With U26C G35A G55A A64G A79G, the self-cleavage came to 0.1. The figure for A30G A50G U73A is 1.13; for U29A A43G A67G G75A C101U U130C it is 0.78. The figure for U26C G41A G60A is 0.02. On to U29A A43G A50G G54A G125U, for which the self-cleavage was 0.12.

In the case of A30G A64U A141G U143C, the self-cleavage was 1.05. The figure for C28A G53A U96A is 0.08; for U29C A78G U87C A141G it is 0.19. The figure for G27A U46A G106U U115C is 0.97; for U26C U47C A107G it is 1.23. The figure for U26C A30G G33A U45C is 1.91; for U29A U52A C61U it is 0.07. Take U26C A78G A142G: the self-cleavage is 1.4. The figure for U26C U112C A121G is 1.02; for U26C G32U U91C it is 0. In the case of U26G A43U A67U, the self-cleavage amounted to 0.14.

For the variant C28A U47A G122U, the self-cleavage came to 1.1. For C28U A57G U102C A138C the value was 0; for U29C A57G A65G A138G, 0; for U26G U87C U104C, 0.

With A30G A42G U100A, the self-cleavage stood at 0. With U26C A79G A117U A121C U134C, the self-cleavage worked out at 1.93.

Regarding U26A U115C A141G, the self-cleavage is 0.94.

As to U26C A57G U73C, the self-cleavage was found to be 2.3.

As to U26C U85C G88A, the self-cleavage came to 0. For U29C U52C A67G A136G, the self-cleavage was found to be 1.53.

Regarding U26C G34A U39A U46C, the self-cleavage is 1.72. Regarding U26C C28A A79G A121G, the self-cleavage was 0.66. For U29C U87C U130C U132C A136U the value was 0; for U26C U29C G49U A142G, 0.77; for U26C U102A C133U A140G, 0.3. The figure for U29G A57U A77G is 0.42; for G27A A50G A64G it is 0.29. C28U U102A U115A U130C A141G: the self-cleavage worked out at 1.81. For U29C A50U A124G A141G the value was 0.88; for U26C U73C U85A, 0. The figure for U29A G88A A121G is 0.13; for U26C A124C U130C it is 0.92; for U29A G32U A117C A140G it is 1.53. Consider U29C U108C A117U, for which the self-cleavage came out at 1.44. The figure for U26C A42G A50G A140G is 0; for U26G U39A U96C A141G it is 0.2.

In the case of U29C U47C U130A, the self-cleavage was 1.05. G27U U91C G122A G125U A129G: the self-cleavage came to 0.13. For U29C G48A G49U U115A the value was 1.27; for U26C U115C U119G, 2.63. For A30G A43U A140U the value was 1.29.

U29C C113G U132A: the self-cleavage worked out at 0.96. The figure for U26C U45C A78G U130C is 0.77. For the variant U26C C38U A69G U73A U109A, the self-cleavage was determined as 0.22.

In the case of U26C U39A U81A A94G U100C U134A, the self-cleavage was found to be 1.24. The figure for U29C U115C C123U is 0.86; for U29C A65G U112A it is 0; for U26C U45C A67U U81A it is 0.18. As to U26C U45A U46C U62C G75A G135A, the self-cleavage came out at 0.04.

Turning to U26C U29C U91C, the self-cleavage was found to be 0.95. The figure for U26G A31U C56U A59G A138G A141G is 0.11. The figure for U29C U46C G139A is 1.12; for A30G A57U C110U it is 0.81. Take U29C A42G U87C: the self-cleavage was 0. The figure for U26G A117U A136U is 1.44.

Consider U26C A92G G93A A124C, for which the self-cleavage turned out to be 0. The figure for U29C A69G U109C is 0.43; for U26C U91C A142G it is 0.68; for G27A U112C U132C C145U it is 1.13. The figure for U26C U29C U96C is 0.

Take A30G A65G G72C: the self-cleavage stood at 0.18. Regarding U29C A42G U108C, the self-cleavage turned out to be 0.84. On to U26C G93A A142G, for which the self-cleavage worked out at 0.08. For U26C U52A U134C the value was 1.73; for A30G A57G C98U, 0.35. The figure for U26C A92U G125U A138G is 0.74; for U26C A77U U85C U91G A136U it is 0; for U26C U29A G41U A77U U134C it is 1.6. For U26C U62C U85A A142G the value was 0.07. As to U26G G122A A140G, the self-cleavage was 1.39.

On to U26G A57G A121G, for which the self-cleavage came out at 0.71.

In the case of U29C U62C U73A, the self-cleavage is 0.03. Turning to U29A A77G A138U, the self-cleavage came out at 2.42. The figure for U26C G32A A42U A107G is 0.43; for U26C U62A A107G it is 0.14; for U26C U47A U81C it is 1.19. For U29C G83A U96C U100A the value was 0.13; for A30G A43G U87A U115C, 0.14; for U29A A42G U46A A65G A78U, 0.1. The figure for U26C U29C U45A C68A C133A is 0.04; for U29C A57G A69C G83A U108C A141G it is 0.16; for U26C U62C A69U it is 0.03. As to U29A A31U A124G, the self-cleavage came out at 0.34. The figure for U26G A64C A107G is 0. For U29C U46C U115C the value was 0; for U29A A65G A142G, 0.04. The figure for C28U U52G A78G A141G is 1.88. Turning to U26C U47A U52C U73A, the self-cleavage amounted to 0.5. Take U26A U91C A140G: the self-cleavage came to 0.06. The figure for G27A A59G U87C U108C is 0. For U29C U85C U115C A138G the value was 0. As to C28G A57U G137A, the self-cleavage is 0.15. For U29C U52C G53A A107G the value was 1.12. For U29C U132C U143C the value was 1.3; for U26C G27A C28A A117U, 0.85. The figure for A30G A64G U73C is 0. As for U26C G35A A107G U112C, the self-cleavage came to 0.88.

Consider U26C U100C U109A A129G, for which the self-cleavage is 0.

On to U29C A42G U46C U52A U143C, for which the self-cleavage was 1.02.

The values above are taken from the RNAGym collection of RNA variant scans (doi:10.7554/elife.90254).
